PubChem BioAssay AID493014 (National Center for Advancing Translational Sciences (NCATS), 2011)
The campaign covered roughly 340,000 compounds. About 170 (0.05%) were called active. Roughly 26% stayed inconclusive and do not appear here. Calls come from the whole dose curve; as a rule, active = well fitted inhibition curve with a large enough effect in the signal ratio, with a control signal flat (not every such curve was filed as active); inconclusive = small, poorly fitted or top-dose-only effect, or effect the other way, or a change in a side signal; inactive = flat fitted curve, though single readings scatter; the % refers to the signal ratio. Only a part is listed here, and it is no random draw.

Experiment: qHTS Assay to Find Inhibitors of Chronic Active B-Cell Receptor Signaling;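 for activity change, negative = inhibition: plate controls were basal doxycycline-induced cells for no effect and cells given 10 µM MG132 for full effect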
Details: ABC-DLBCL IkBa-CBG/CBR reporter, luminescence ratio (green luciferase fused to IkBa over red control in TMD8 lymphoma cells), 4 h; series mostly up to 46.1 µM; activity change, negative = inhibition: at the top concentration
Procedure, shortened: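 Compounds up to 46 uM were incubated four hours with TMD8 cells whose green CBG68 luciferase is fused to IkappaBalpha; red CBR luminescence normalised the signal, and concentration-effect curves were fitted to fusion, red and ratio data.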
Potency is the fitted concentration of half-maximal effect.

Potency, active:
COc1ccc(/C=N/NC(=O)CCn2cnc(-c3ccccc3)c2-c2ccccc2)cc1 23.1 µM, COc1ccc(N2C(=O)CS/C2=N\C(=S)Nc2ccccc2)cc1 10 µM, CC(=O)Nc1ccc(Oc2cc(C#N)c(C#N)cc2N2CCOCC2)cc1 20.6 µM, Cc1ccc(/C=C/C(=O)c2nc3ccccc3[nH]2)cc1 12.6 µM

Activity change, negative = inhibition, inactive:
Cc1ccn2c(c1)nc(=O)c1cc(S(=O)(=O)N3CCCCC3)ccc12 15.8%, NC(=O)C1CCN(c2nc(-c3ccc(F)cc3)cs2)CC1 25.6%, CC(=O)c1cc2c(cc1N/C(=N/S(=O)(=O)c1ccccc1)c1ccc(Cl)cc1)OCO2 15.5%, CCOC(=O)c1c(CN2CCCCC2)oc2ccc(OC)cc12 -0.0808%, O=C(NC(Cc1ccccc1)C(=O)O)/C(=C/c1ccc(Br)cc1)NC(=O)c1ccc(Br)o1 (configuration not stated) 8.53%, Cc1nc2c(o1)CCc1ccccc1C2N1CCN(C)CC1 (configuration not stated) 3.57%, CCO[C@H]1OC(C(N)=O)=C[C@@H](c2coc3ccccc3c2=O)[C@@H]1CCCO -0.351%, COc1cc(/C=C2\SC(=Nc3ccc(O)cc3)NC2=O)cc(OC)c1O -11.4%, CCOc1cc(/C=C2\C(=O)ON=C2C)ccc1OCc1ccccc1 5.1%, COC(C[C@@H]1O[C@H]1[C@@H](O)[C@@H](C)OCc1ccccc1)OC -1.74%, CC(C)(C)[C@@H]1COC(=O)[C@H](Cc2ccc(F)cc2)C/C=C\C[C@H](CC(=O)N(CCO)Cc2ccccc2)C(=O)N1 -2.39%, CN1C(=O)S/C(=C/c2ccccc2OCc2ccc(C(=O)O)cc2)C1=O 16.7%, COc1ccc(-c2csc(N3CCC(C(N)=O)CC3)n2)cc1 -15.1%, CCOC(=O)[C@@H]1[C@H]2COc3ccccc3[C@@H]2N2C(=O)N(c3ccc(Cl)cc3)C(=O)[C@]12C 2.47%, N#C/C(=C/c1ccco1)c1nc2ccccc2s1 -5.08%, O=C(CCN1C(=O)/C(=C/c2ccccc2)SC1=S)NCCCN1CCOCC1 15.8%, CCN1C(=NCC2CC2)N[C@@H](c2cccc(C(F)(F)F)c2)C(C(=O)OC)=C1C 8.27%, C[C@@H](NC(=O)c1nc[nH]c1C(=O)N[C@H](C)c1ccccc1)c1ccccc1 5.07%, COC(C[C@@H]1O[C@H]1[C@H](O)COCc1ccccc1)OC 7.95%, COc1ccc(-c2cc(=O)c3c(O)cc(OC4OC(COC5OC(C)C(O)C(O)C5O)C(O)C(O)C4O)cc3o2)cc1O (configuration not stated) 19.5%, COC(C[C@H]1O[C@H]1[C@@H](O)COCc1ccccc1)OC -2.07%, CN1CCC(=C2c3ccccc3CC(=O)c3sccc32)CC1 -1.88%, Cc1ccccc1CN1C(=O)c2ccccc2Sc2ccc(C(=O)NCCCN3CCOCC3)cc21 7.88%, N#C/C(=N\O)c1nc(-c2ccccc2)cs1 -0.858%, O=c1cc(-c2ccc(O)c(O)c2)oc2cc(O)c(C3OC(CO)C(O)C(O)C3O)c(O)c12 (configuration not stated) 8.97%, O=C(C[C@@H]1C/C=C\C[C@H](NC(=O)OCC2c3ccccc3-c3ccccc32)C(=O)OC[C@@H]2CCCN2C1=O)N[C@H](CO)Cc1ccccc1 0.816%, Cc1ccc(-c2cc(C(=O)O)c3cc(Br)ccc3n2)s1 -0.33%, COc1ccc(NC(=O)/C(C#N)=C\C=C\c2ccco2)cc1 -16.2%
